Measurements taken from patent publication US11413334B2, “Lysin polypeptides active against Gram-negative bacteria” (CONTRAFECT CORPORATION, priority 2015, dated 2022).

Tested on: PAO1 cells
Experiment: Killing assay of GN4-derived peptides in Tris-HCl buffer
Settings: peptide 10 mcg/ml, 1 hour, 20 mM Tris-HCl pH 7.2; compared with other peptides or buffer
Description: A single C-terminal cysteine was added to FGN4-1 (SEQ ID NO: 7) to generate FGN4-4 (SEQ ID NO: 10). For the 3 additional peptides, the 11 C-terminal residues of FGN4-1 were either removed (FGN4-2, (SEQ ID NO: 8)) or removed and replaced with either a single lysine (K) residue (FGN4-3, (SEQ ID NO: 9)) or an 8-residue antibacterial peptide identified from the hepatitis B capsid (PGN4, (SEQ ID NO: 6)).

Substance: FGN4-3: FGN4-1 with 11 C-terminal residues replaced by a single lysine (NKGDYQGAADQFPRWVNAGGKRLDGLVKRRK; artificially-created modified fragment of GN4 (SEQ ID NO 3))
- antibacterial activity of GN4-derived peptides (viability assay, FIG. 6): greater antibacterial activity than the other GN4 peptides tested
